Data taken from PubChem BioAssay AID651820 (National Center for Advancing Translational Sciences (NCATS), 2012).
In all, about 340,000 compounds went through this assay and about 12,000 (3.5%) were called active. Inconclusive means that the source gave no clear call. Such entries were picked first, then a sample of the others. The call rests on the fitted dose curve; in most records, active means well fitted inhibition curve with a large enough effect; inconclusive means small, poorly fitted or top-dose-only effect, or another doubt; inactive means no such curve, though single readings can be large or run the other way. Potencies of inconclusive entries are left out as doubtful fits.
On the % scale 0 is the no-effect control and ±100 the full control effect; potency means the concentration at half of the fitted maximal effect; tags describe the fitted curve by direction and shape.

Assay: qHTS Assay for Inhibitors of Hepatitis C Virus (HCV)
Conditions: Huh7.5.1 HCVcc-Cre (HCVcc is cell-culture hepatitis C virus) infection, luciferase reporter, 44 h; activity change, negative = inhibition: at 41.8 µM (top of the series) unless noted
Outline: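 Compounds are dispensed onto cells plated 4 h earlier at 1,000 per well, with HCVcc-Cre virus (about 0.5 moi) added next. Following 44 h of culture, luminescent signal is measured for 15 sec after 15 min with substrate at room temperature.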
In the case of `COC(=O)C1=C(COc2ccccc2)NC(=O)NC1c1ccc2ccccc2c1` (stereo unspecified), the “activity change, negative = inhibition” value is reported as inactive: -23.1%. For `N#Cc1cccc(C(=O)Nc2ccccc2C(=O)NC2CC2)c1`, the Potency was inconclusive [inhibitor, full curve]. For `CN1C(=O)N(C)C(NC(=O)Nc2ccccc2)C1NC(=O)Nc1ccccc1` (stereo unspecified), the “activity change, negative = inhibition” value was inactive: 0.148%. With `COc1ccccc1N1CCN(C(=O)NCc2ccc(Cl)cc2)CC1` the Potency was inconclusive [inhibitor, full curve, poor fit]. In the case of `COc1ccc(C(=O)OCCN2CCN(C3=NS(=O)(=O)c4ccccc43)CC2)cc1OC`, the “activity change, negative = inhibition” value is reported as inactive: 2.1%. For `Cc1ccccc1-c1nc(CN(Cc2c(C)nn(C)c2C)C2CC2)c(C)o1`, the Potency was inconclusive [inhibitor, single point]. In the case of `COCCNc1oc(-c2ccccc2Cl)nc1S(=O)(=O)c1ccc(C)cc1`, the Potency is reported as inconclusive [inhibitor, partial curve]. In the case of `COc1ccc(CNCc2c(O)c(Cl)cc3c(C)c(C)c(=O)oc23)c(OC)c1`, the “activity change, negative = inhibition” value is reported as inactive: 9.79%. In the case of `Cn1c(C(=O)N2CCCC(Nc3ccc(F)cc3)C2)cc2ccccc21` (stereo unspecified), the Potency is reported as inconclusive [inhibitor, single point]. In the case of `CN(C)CCCNC(=S)N1CCN(c2nc(-c3ccccc3)cs2)CC1`, the Potency is reported as inconclusive [inhibitor, single point]. In the case of `CC[n+]1c(-c2ccccc2)c2cc(N)ccc2c2ccc(N)cc21`, the Potency is reported as inconclusive [inhibitor, full curve]. In the case of `O=[N+]([O-])c1ccc(N2CCN(CC3CCCCC3)CC2)cc1`, the Potency is reported as inconclusive [inhibitor, single point]. In the case of `CCN(CC(=O)Nc1cc(S(=O)(=O)N2CCOCC2)ccc1Cl)Cc1ccccc1`, the Potency is reported as active: 7.94 µM. With `Cc1ccc(C(=O)NC(=S)Nc2cc(C(F)(F)F)ccc2Cl)cc1` the “activity change, negative = inhibition” value was inactive: -5.45%. In the case of `CCCc1cc(C(=O)N2CCCC(C(=O)c3cccc4ccccc34)C2)n(C)n1` (stereo unspecified), the Potency is reported as inconclusive [inhibitor, single point]. With `COC(=O)c1ccc(CNC(=O)CSc2nc3sc(C)c(C)c3c(=O)n2C)o1` the Potency was inconclusive [inhibitor, single point]. For `CC(C)CCn1c(Sc2nc3ccccc3o2)nc2c1c(=O)[nH]c(=O)n2C`, the Potency was inconclusive [inhibitor, single point]. With `Oc1oc(-c2ccc(Br)cc2)nc1C=Nc1ccc(Br)cn1` the “activity change, negative = inhibition” value was inactive: 0.891%. With `Cc1cc(C=O)c(C)n1-c1ccc2c(c1)OCO2` the “activity change, negative = inhibition” value was inactive: 12.6%. In the case of `COc1ccccc1NC(=O)c1ccc2c(c1)N(CC#N)C(=O)C(C)(C)O2`, the Potency is reported as inconclusive [inhibitor, single point]. For `COc1ccc(CC(=O)Nc2cccc(C(=O)O)c2C)cc1`, the “activity change, negative = inhibition” value was inactive: 1.45%. For `O=C(NCc1ccncc1)c1ccc(Cl)c(S(=O)(=O)N2CCOCC2)c1`, the “activity change, negative = inhibition” value was inactive: 1.77%. In the case of `COc1cc2c(cc1OC)CN(C(=O)CSc1ccccc1C)CC2`, the Potency is reported as inconclusive [inhibitor, single point]. For `Cc1ccc(S(=O)(=O)OCCC2=CC(=O)CCN2Cc2ccccc2)cc1`, the “activity change, negative = inhibition” value was inactive: -4.82%. For `CC1CCc2c(sc(NC(=O)CCC(=O)O)c2C(=O)NC2CC2)C1` (stereo unspecified), the “activity change, negative = inhibition” value was inactive: 11.3%. With `CCCCCn1c(=O)[nH]c2cc(C(=O)NCCCN3CCCCC3)ccc2c1=O` the Potency was active: 10 µM. With `CCCn1nc(C(=O)OCc2nc(N)nc(Nc3ccccc3C)n2)c2ccccc2c1=O` the Potency was inconclusive [inhibitor, single point]. For `O=C(CSc1nc2ccccc2c(=O)n1-c1ccc(F)cc1F)Nc1ccc(N2CCOCC2)cc1`, the Potency was inconclusive [inhibitor, partial curve]. In the case of `Cc1cc(C)cc(NC(=O)CN2C(=O)NC(Cc3c[nH]c4ccccc34)C2=O)c1` (stereo unspecified), the “activity change, negative = inhibition” value is reported as inactive: 8.61%. For `Cc1onc(-c2ccccc2Cl)c1C(=O)O/N=C(\N)c1ccc([N+](=O)[O-])o1`, the Potency was inconclusive [inhibitor, partial curve]. For `CC1(C)CC(=O)C(C(c2cccnc2)C2C(=O)CC(C)(C)CC2=O)C(=O)C1`, the “activity change, negative = inhibition” value was inactive: -7.51%. For `Cc1cc2c3c([nH]c2cc1S(=O)(=O)N1CCC2(CC1)OCCO2)CCCC3=O`, the Potency was active: 22.4 µM. For `Cc1ccccc1NC(=S)N(CCc1c(C)[nH]c2ccc(F)cc12)Cc1cccnc1`, the Potency was inconclusive [inhibitor, partial curve]. With `O=C(CCN1C(=O)c2ccccc2C1=O)N1CCN(Cc2ccc(Cl)cc2Cl)CC1` the Potency was inconclusive [inhibitor, single point]. With `COc1ccccc1NC(=O)CSc1nc2nccnc2c(=O)n1Cc1cccs1` the Potency was inconclusive [inhibitor, single point]. For `CCc1cc(C(c2cccc(OC)c2)N2CCOCC2)c(NC(=O)c2ccccc2)s1` (stereo unspecified), the Potency was inconclusive [inhibitor, partial curve]. With `CCOc1cc(/C=C/C(=O)c2ccc(OC)c(CN3CCOCC3)c2)cc(Br)c1O` the Potency was inconclusive [inhibitor, partial curve]. In the case of `CC(C)Cn1cnc2c(SCCc3ccccc3)nc(N)nc21`, the activity change, negative = inhibition is reported as inconclusive: -42.1% [inhibitor]. In the case of `COc1ccc(CN2CCC(Cc3ccccc3)CC2)cc1OC`, the Potency is reported as inconclusive [inhibitor, partial curve]. For `CCOCCCNCc1ccc(OCc2ccccc2C)c(OC)c1`, the Potency was inconclusive [inhibitor, partial curve]. In the case of `CCOC(=O)/C=C1\Nc2ccccc2OC1=O`, the Potency is reported as inconclusive [inhibitor, single point]. With `CN(CC1CCN(CCc2cccc(C(F)(F)F)c2)CC1)C(=O)c1ccc(F)cc1` the “activity change, negative = inhibition” value was inactive: -18.6%. For `Cc1ccc(C(O)CCc2ccc(N)cc2)cc1` (stereo unspecified), the Potency was inconclusive [inhibitor, single point]. With `Clc1ncccc1-c1nc2ccccc2n1Cc1ccccc1` the Potency was inconclusive [inhibitor, single point]. With `O=C(c1ccccc1)N1CCN(C(=O)c2ccc3c(c2)OCO3)CC1` the “activity change, negative = inhibition” value was inactive: 8.31%. With `O=C(c1cccc(-c2ccccc2F)c1)N1CC[C@@H](N2CCC(O)CC2)[C@H](O)C1` the “activity change, negative = inhibition” value was inactive: 2.29%.
